# Over roughly 81,000 sequences, “one-hybrid fitness for binding parS DNA” has its median near -0.17; the highest 2% begin near 0.51. This is one part of the list.
# B1: Caulobacter ParB omega fusion; a variant is named by its letters at X, in order, B8GW30 (parent)
# chain: MESVVVGEPGMSEGRRGLGRGLSALLGEVDAAPAQAPGEQLGGSREAPIEILQRNPDQPRRTFREEDLEDLSNSIREKGVLQPILVRPSPDTAGEYQIVAGERAWRAAQRAGLKTVPIMVRELDDLAVLEIGIIENVQRADLNVLEEALSYKVLMEKFERTQENIAQTIGKSXSHVANXMRLLXLPDEVQSYLVSGELTAXHARAIAAAADPVALAKQIIEGGLSVRETEALARKAPNLSAGKSKGGRPPRVKDTDTQALESDLSSVLGLDVSIDHRGSTGTLTITYATLEQLDDLCNRLTRGI
# Variants of: B1
# Assay: one-hybrid fitness for binding parS DNA (scaled: cognate 1, non-cognate 0); higher = stronger binding
# Conditions: with parS DNA site
# How it was run: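 On M9-minus-histidine containing 0.1 mM IPTG and 5 mM 3-AT, E. coli USO cells with a HIS3 reporter, site 19 bp from the promoter, grew 48 hours at 37°C to select Caulobacter ParB libraries randomised at four specificity codons. Plasmids from before and after were Illumina-sequenced, with three replicate libraries pooled and variants under 10 reads left out. Fitness is the log change in variant-to-wild-type read ratio, rescaled against cognate and non-cognate.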
row,Variant,one-hybrid fitness for binding parS DNA
1,CGFC,≤ 0.2
2,PGPI,≤ 0.2
3,TGTQ,≤ 0.2
4,DQHR,≤ 0.2
5,RNHT,0.723
6,PKYE,≤ 0.2
7,KLYP,0.319
8,NGYR,≤ 0.2
9,WQQI,≤ 0.2
10,GPEI,≤ 0.2
11,PDVM,≤ 0.2
12,VTIY,≤ 0.2
13,NMNS,≤ 0.2
14,SPPR,≤ 0.2
15,CRRR,≤ 0.2
16,RTNM,0.301
17,IDNE,≤ 0.2
18,QMLI,≤ 0.2
19,ALQG,≤ 0.2
20,NRKG,≤ 0.2
21,LGVS,≤ 0.2
22,MFSS,≤ 0.2
23,AKDT,≤ 0.2
24,VMPH,≤ 0.2
25,HLGH,≤ 0.2

row,Variant,one-hybrid fitness for binding parS DNA
1,FSTM,≤ 0.2
2,NLKN,≤ 0.2
3,ACYC,≤ 0.2
4,IQNT,≤ 0.2
5,QDPR,≤ 0.2
6,MDKS,≤ 0.2
7,VYAR,≤ 0.2
8,DPPR,≤ 0.2
9,GMGR,≤ 0.2
10,MSPI,≤ 0.2
11,YKAR,≤ 0.2
12,PLRL,≤ 0.2
13,FVYT,≤ 0.2
14,CACF,≤ 0.2
15,PKPE,≤ 0.2
16,QQNR,≤ 0.2
17,LQNS,≤ 0.2
18,LAST,≤ 0.2
19,WGTG,≤ 0.2
20,DGGN,≤ 0.2
21,IMTC,≤ 0.2
22,QVQV,≤ 0.2
23,TWLI,≤ 0.2
24,NPPC,≤ 0.2
25,EYPV,≤ 0.2

row,Variant,one-hybrid fitness for binding parS DNA
1,KWRR,≤ 0.2
2,PGKG,≤ 0.2
3,QPSQ,≤ 0.2
4,PTEP,≤ 0.2
5,PANG,≤ 0.2
6,ELSE,≤ 0.2
7,MLSI,≤ 0.2
8,DMLY,≤ 0.2
9,GFFG,≤ 0.2
10,THWI,≤ 0.2
11,HNVN,≤ 0.2
12,GTDL,≤ 0.2
13,ATAQ,≤ 0.2
14,ARQN,≤ 0.2
15,NWWC,≤ 0.2
16,VRPV,≤ 0.2
17,IGAS,≤ 0.2
18,IGRI,≤ 0.2
19,KMLR,≤ 0.2
20,IDIS,≤ 0.2
21,QYRE,≤ 0.2
22,MSQM,≤ 0.2
23,CLSW,≤ 0.2
24,VRRQ,≤ 0.2
25,DYFC,≤ 0.2

row,Variant,one-hybrid fitness for binding parS DNA
1,RALA,0.612
2,MKKR,≤ 0.2
3,LAGY,≤ 0.2
4,QCPW,≤ 0.2
5,CTCT,≤ 0.2
6,HNMA,≤ 0.2
7,QSEL,≤ 0.2
8,QALS,≤ 0.2
9,RVAR,≤ 0.2
10,LTHG,≤ 0.2
11,NGQV,≤ 0.2
12,ATRQ,≤ 0.2
13,ESTF,≤ 0.2
14,SETA,≤ 0.2
15,SYVC,≤ 0.2
16,AHKM,≤ 0.2
17,MECR,≤ 0.2
18,MTKH,≤ 0.2
19,LLLY,≤ 0.2
20,QHNC,≤ 0.2
21,ALMS,≤ 0.2
22,QWAY,≤ 0.2
23,TGFC,≤ 0.2
24,DILR,≤ 0.2
25,ASTD,≤ 0.2

row,Variant,one-hybrid fitness for binding parS DNA
1,ISEG,≤ 0.2
2,VHVC,≤ 0.2
3,VRKE,≤ 0.2
4,FVAS,≤ 0.2
5,DILS,≤ 0.2
6,AIQY,≤ 0.2
7,PPTV,≤ 0.2
8,VTTT,≤ 0.2
9,LHAG,≤ 0.2
10,YNNE,≤ 0.2
11,FTKK,≤ 0.2
12,QGDF,≤ 0.2
13,RQSL,≤ 0.2
14,KAAN,≤ 0.2
15,GGYG,≤ 0.2
16,TWNC,≤ 0.2
17,QLYE,≤ 0.2
18,WHGR,≤ 0.2
19,SRRL,≤ 0.2
20,PSRC,≤ 0.2
21,SSHP,≤ 0.2
22,SGAV,≤ 0.2
23,SSSG,≤ 0.2
24,QLEY,≤ 0.2
25,TLTS,≤ 0.2

row,Variant,one-hybrid fitness for binding parS DNA
1,FTNC,≤ 0.2
2,ERAG,≤ 0.2
3,RAGN,0.448
4,RREA,0.802
5,FCGR,≤ 0.2
6,RIWI,≤ 0.2
7,PRLL,≤ 0.2
8,PFAT,≤ 0.2
9,WSEM,≤ 0.2
10,CYNT,≤ 0.2
11,WAPG,≤ 0.2
12,SRYK,≤ 0.2
13,SHHY,≤ 0.2
14,RSRF,0.281
15,PGYW,≤ 0.2
16,FNLC,≤ 0.2
17,QDNN,≤ 0.2
18,DAPA,≤ 0.2
19,AVKG,≤ 0.2
20,QKSW,≤ 0.2
21,SHWT,≤ 0.2
22,QQRA,≤ 0.2
23,ELHS,≤ 0.2
24,TCQA,≤ 0.2
25,GSPN,≤ 0.2

row,Variant,one-hybrid fitness for binding parS DNA
1,CRFS,≤ 0.2
2,HRTN,≤ 0.2
3,MQRR,≤ 0.2
4,RHFH,≤ 0.2
5,KYKV,≤ 0.2
6,TTRK,≤ 0.2
7,QKAE,≤ 0.2
8,SSTW,≤ 0.2
9,ALVL,≤ 0.2
10,KLWM,≤ 0.2
11,RRAQ,≤ 0.2
12,IWKL,≤ 0.2
13,RQSW,0.241
14,CMQC,≤ 0.2
15,LEFM,≤ 0.2
16,QSHL,≤ 0.2
17,KYRW,≤ 0.2
18,QRKA,≤ 0.2
19,ILAR,≤ 0.2
20,RWLI,≤ 0.2
21,SIET,≤ 0.2
22,RHRT,0.788
23,FTTR,≤ 0.2
24,PTRI,≤ 0.2
25,KKCG,≤ 0.2

row,Variant,one-hybrid fitness for binding parS DNA
1,HMAN,≤ 0.2
2,EECR,≤ 0.2
3,VLNY,≤ 0.2
4,IVPS,≤ 0.2
5,QLPP,≤ 0.2
6,ATCA,≤ 0.2
7,MWQS,≤ 0.2
8,SPDN,≤ 0.2
9,VTPV,≤ 0.2
10,VPAV,≤ 0.2
11,KRPF,≤ 0.2
12,QHSP,≤ 0.2
13,WYNC,≤ 0.2
14,RLCT,0.923
15,HLKN,≤ 0.2
16,ESDR,≤ 0.2
17,CVHC,≤ 0.2
18,AYAY,≤ 0.2
19,PAKD,≤ 0.2
20,ITVP,≤ 0.2

# From a collection of fitness landscapes (doi:10.1016/j.celrep.2020.107928)
